# Measurements taken from PubChem BioAssay AID686979 (National Center for Advancing Translational Sciences (NCATS), 2013).
# Several values for one entry are separate records, joined by “and”; a condition that tells them apart may be missing. Equal values may be shown once. About 50,000 (12%) of roughly 420,000 compounds were called active. Inconclusive means that the source gave no clear call. Such entries were picked first, then a sample of the others. The call rests on the fitted dose curve; in most records, active means well fitted inhibition curve with a large enough effect; inconclusive means small, poorly fitted or top-dose-only effect; inactive means flat fitted curve, though single readings scatter. Potencies of inconclusive entries are left out as doubtful fits.
# Assay: qHTS for Inhibitors of human tyrosyl-DNA phosphodiesterase 1 (TDP1): qHTS in cells in presence of CPT; further: nearly all actives have a fitted effect of over 55% in size
# Details: chicken DT40 Tdp1-/-;hTDP1 cells + 20 nM CPT, ATP luminescence, 48 h; activity change, negative = growth inhibition: at 46.2 µM (top of the series) unless noted
# Outline: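 Cell growth measured by CellTiter-Glo luminescence after a minimum 48 h, 37 C compound exposure with 20 nM CPT in Tdp1-knockout DT40 cells stably expressing hTDP1, seeded 400/well; qHTS titration format.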
# On the % scale 0 is the no-effect control and ±100 the full control effect; potency means the concentration at half of the fitted maximal effect; tags describe the fitted curve by direction and shape.
Compound,Potency,"activity change, negative = growth inhibition"
CCCCN(C)CCCNC(=O)c1cc(Nc2ccc(OC)c(OC)c2)nc2ccccc12,"inconclusive [inhibitor, partial curve]",–
O=C1NC[C@H](Cc2ccccc2)N(C[C@H]2CCCN2C[C@H](Cc2ccccc2)N2C[C@H](Cc3ccc(O)cc3)N(CCc3ccccc3)C(=O)C2=O)C1=O,"inconclusive [inhibitor, single point]",–
Cc1ccc(-c2cc(C(=O)Nc3cnn(C(C)C)c3)no2)cc1,"inconclusive [inhibitor, single point]",–
COc1ccc(C2=NN(C(=O)C(O)c3ccccc3)C(O)(C(F)(F)F)C2)cc1 (stereo not given),–,inactive: -22.9%
COc1cc(C(C)=O)ccc1OCC(=O)Nc1ccccc1N1CCCC1,"inconclusive [inhibitor, single point]",–
CC(C)C1Nc2ccc(C(=O)NCCCN3CCOCC3)cc2NC1=O (stereo not given),–,inactive: 8.43%
CCOc1ccc(C(C(=O)NCC2CCCO2)N(CCc2cccc(C)c2)C(=O)c2snc(C(N)=O)c2N)cc1 (stereo not given),"inconclusive [inhibitor, single point]",–
O=C1C2C3C=CC(C4CC34)C2C(=O)N1c1ccc2c(c1)OCO2 (stereo not given),–,inconclusive: -31.5% [inhibitor]
Cc1ccc(S(=O)(=O)CCC(=O)OCC(=O)N2c3ccccc3NC(=O)C2(C)C)cc1,"inconclusive [inhibitor, single point]",–
Cc1cc(C(=O)O)ccc1-c1ccc(/C=C2\NC(=O)N(Cc3ccc(F)cc3)C2=O)o1,–,inactive: -29.3%
CCOC(=O)[C@H]1[C@H]2COc3cc(OC)ccc3[C@@H]2N2C(=O)N(c3cccc(F)c3)C(=O)[C@@]12C,"inconclusive [inhibitor, single point]",–
O=C(NCc1ccccc1Cl)c1ccc2c(c1)SC1=NS(=O)(=O)CCN12,"inconclusive [inhibitor, single point]",–
COc1ccc(NC(=O)C2CCCN(S(=O)(=O)c3ccc4c(c3)CCCN4C(C)=O)C2)cc1 (stereo not given),"inconclusive [inhibitor, single point]",–
C[C@H]1CN([C@@H](C)CO)C(=O)c2cc(Br)cnc2O[C@H]1CN(C)C(=O)Cc1ccccn1,–,inactive: 0.748%
CCCNC(=S)Nc1ccc(Nc2ccccc2)cc1,"inconclusive [inhibitor, single point]",–
C=C1C(=O)O[C@@H]2[C@H]3O[C@]3(C)CC/C=C(\C)CC[C@@H]12,active: 891 nM and active: 4.61 µM,–
COc1ccc(-n2c(=O)c(-c3ccc(F)cc3)nc3cnc(N4CCNCC4)nc32)cc1,"inconclusive [inhibitor, single point]",–
Cc1c(C(=O)N(Cc2ccc(F)cc2)C2CCS(=O)(=O)C2)oc2ccccc12 (stereo not given),"inconclusive [inhibitor, single point]",–
CCn1c(C(O)c2cc(OC)c(OC)c(OC)c2)nc2ccccc21 (stereo not given),"inconclusive [inhibitor, single point]",–
C=CCNC(=O)Nc1ccc(OCC)cc1,"inconclusive [inhibitor, single point]",–
COc1ccc(C(N)c2csc(Nc3ccc(C(=O)c4ccccc4)cc3)n2)cc1 (stereo not given),"inconclusive [inhibitor, single point]",–
Cn1c(N)c(S(=O)(=O)N2CCN(Cc3ccccc3)CC2)c(=O)n(C)c1=O,–,inactive: 28%
CC1=CSC2=NC(=O)/C(=C\c3cccn3-c3ccc([N+](=O)[O-])cc3)C(=N)N12,"inconclusive [inhibitor, single point]",–
CN(C)S(=O)(=O)c1cccc(NC(=S)N2CCc3ccccc32)c1,"inconclusive [inhibitor, partial curve]",–

Compound,Potency,"activity change, negative = growth inhibition"
Cc1ccc(C(C(=O)NC2CCCC2)N(Cc2cccs2)C(=O)CNC(=O)c2cccs2)o1 (stereo not given),"inconclusive [inhibitor, single point]",–
C[C@@]12C(=O)N(c3cccc(F)c3)C(=O)N1[C@H](c1ccc(F)cc1)[C@@H]1C(=O)N(C3CCCCC3)C(=O)[C@@H]12,active: 20.6 µM,–
CC(C)c1ccccc1NC(=O)CN(c1ccccc1)S(=O)(=O)N(C)C,"inconclusive [inhibitor, single point]",–
CCOc1ccc(-n2c(SCC(=O)Nc3ccccc3C)n[nH]c2=O)cc1,–,inactive: -13%
COc1cc(/C=N/N2CCN(C3c4ccccc4-c4ccccc43)CC2)cc(OC)c1OC,active: 16.4 µM,–
O=C(COc1ccc(Br)cc1)N(Cc1ccco1)C1CCS(=O)(=O)C1 (stereo not given),–,inactive: -18.4%
O=C(NCCCn1ccnc1)c1ccc(-c2cccc(Cl)c2Cl)o1,active: 18.4 µM,–
Cc1cc(/C=C2\Sc3ccccc3N2C)cc(C)[n+]1CC1CCCO1 (stereo not given),active: 0.0082 µM,–
COCCN(Cc1ccc(C)c(Br)c1)C(=O)Cn1cnc(S(=O)(=O)N2CCCC2)c1,"inconclusive [inhibitor, single point]",–
CCOc1ccc(NC(=O)CSc2nc(C)cc(C)n2)cc1,"inconclusive [inhibitor, single point]",–
COc1ccc(N(C(=O)c2ccncc2)S(=O)(=O)c2ccc(OC)c(OC)c2)cc1,–,inactive: -20.7%
Cn1c(=O)c(-[n+]2ccccc2)c([O-])c2ccccc21,–,inactive: -18.8%
Cc1cc(C(=O)NNC(=O)/C=C/c2ccccc2Cl)c(C)o1,–,inactive: -4.04%
CCOc1ccc(CNC(=O)c2[nH]c3ccccc3c2Sc2ccc(C)cc2)cc1,"inconclusive [inhibitor, single point]",–
CC(=O)Nc1ccc(NC(=O)C(C)Oc2ccc(C)nc2[N+](=O)[O-])cc1 (stereo not given),–,inactive: 1.46%
COc1ccc(N(CC(=O)NCCc2ccc(C)cc2)S(=O)(=O)c2c(C)noc2C)cc1,active: 20.6 µM,–
O=C(Cn1ccn(-c2cccc(Cl)c2)c(=O)c1=O)c1ccc(F)cc1,–,inactive: 6.6%
CCCC(=O)Nc1cccc(NC(=O)c2cccc([N+](=O)[O-])c2C)c1,"inconclusive [inhibitor, single point]",–
Cc1cc(C(=O)NCc2cccs2)n(-c2ccccc2)n1,"inconclusive [inhibitor, single point]",–
CC(C)(C)NC(=O)COC(=O)c1c2c(nc3ccccc13)CCC2,"inconclusive [inhibitor, single point]",–
CCC[C@H]1CN(c2ccc(OC)cc2)C(=O)[C@@H]1CC(=O)NC,–,inactive: 0.662%
Cc1ccc2c(c1)C(=O)C(=O)N2Cc1ccc(OC(C)C)cc1,active: 0.0073 µM,–
CCCC(=O)Nc1ccc(C(=O)NNC(=S)NC(=O)c2cccs2)cc1,"inconclusive [inhibitor, single point]",–
CCN(CC)S(=O)(=O)c1cc(NC(=O)NCCCl)ccc1C,"inconclusive [inhibitor, single point]",–

Compound,Potency,"activity change, negative = growth inhibition"
COc1ccc(OC)c(S(=O)(=O)N2Cc3ccccc3CC2C(=O)Nc2ccc(Cl)cc2)c1 (stereo not given),"inconclusive [inhibitor, single point]",–
Cn1c2ccccc2c(=O)c2cc(C#Cc3ccsc3)ccc21,–,inactive: -17.1%
COc1cc(NC(=S)N2CCCC2)cc(OC)c1,"inconclusive [inhibitor, partial curve]",–
COc1ccc(NS(=O)(=O)c2cc(C)ccc2OC)cc1OC,–,inactive: -15.4%
COc1ccccc1NC(=O)c1coc(=O)c(Br)c1,active: 0.731 µM,–
CCOC(=O)c1cc(-c2ccccc2)n(CCC(=O)Nc2ccc(C)cc2Cl)c1C,"inconclusive [inhibitor, single point]",–
CCCCNC(=O)Nc1ccc(C2SCCS2)cc1,"inconclusive [inhibitor, single point]",–
O=S1(=O)C[C@@H](N2CCN(CCO)CC2)[C@H](COCc2ccccc2)N1,–,inactive: -4.37%
O=C(NCCc1ccccc1)C1CCCN1C(=O)Nc1ccccc1 (stereo not given),–,inactive: 6.94%
CC1(c2nnnn2Cc2ccccc2)CCC(=O)N1CCCn1ccnc1 (stereo not given),–,inactive: -13.5%
COc1ccccc1C(=O)COC(=O)c1ccc(N(C)C)cc1,"inconclusive [inhibitor, single point]",–
CCC(C)(C(=O)NC1CCCCC1)N(C(=O)c1ccccn1)c1ccccc1 (stereo not given),"inconclusive [inhibitor, single point]",–
CC1CCCCN1c1nc(-c2ccncc2)nc2ccccc12 (stereo not given),"inconclusive [inhibitor, single point]",–
O=C(NCc1cccnc1)C(=O)NCC1OCCCN1S(=O)(=O)c1cc(F)ccc1F (stereo not given),–,inactive: -3.64%
CCOc1ccc(S(=O)(=O)NCCC(=O)NC2CCC(C)CC2)cc1 (stereo not given),"inconclusive [inhibitor, partial curve]",–
CC(C)(C)c1ccc(C(=O)O/N=C(\N)c2ccccc2)cc1,"inconclusive [inhibitor, single point]",–
CCC(C(=O)NC(C)(C)C)n1c(C(c2ccccc2)c2ccccc2)nc2ccccc21 (stereo not given),active: 18.4 µM,–
O=c1ccc(-c2ccc([N+](=O)[O-])cc2)nn1-c1ccccc1,–,inactive: -3.36%
O=C(c1cc(COc2ccc(F)cc2Cl)on1)N1CCc2sccc2C1,"inconclusive [inhibitor, single point]",–
CCOc1ccc(-c2nn(-c3ccccc3)cc2C2NC(=O)NC(C)=C2C(=O)OC(C)C)cc1C (stereo not given),"inconclusive [inhibitor, single point]",–
COc1ccc(NC(=O)C2CCCCN2N)cc1OC (stereo not given),"inconclusive [inhibitor, single point]",–
CCCc1ccc(-c2csc(NC(=O)Cc3cccs3)n2)cc1,"inconclusive [inhibitor, single point]",–
